Experimental data: paper PMC12820563, “FoxP3 forms a head-to-head dimer in vivo and stabilizes its multimerization on adjacent microsatellites”
The list shows a part of the results.

Target: T1, MBP-FoxP1dN (Mus musculus, UniProt P58462 326-579)
T1 sequence: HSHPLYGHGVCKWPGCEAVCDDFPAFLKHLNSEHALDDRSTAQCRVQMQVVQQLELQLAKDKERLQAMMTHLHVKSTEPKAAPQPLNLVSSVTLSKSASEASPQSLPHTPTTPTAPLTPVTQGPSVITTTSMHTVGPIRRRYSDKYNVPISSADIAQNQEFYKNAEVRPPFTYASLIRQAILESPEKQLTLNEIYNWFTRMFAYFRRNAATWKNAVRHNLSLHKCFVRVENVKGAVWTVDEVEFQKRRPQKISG
Assay: PD-seq (MBP pull-down with sequencing); 20 mM Tris-HCl pH 7.5, 100 mM NaCl, 1.5 mM MgCl2, 0.4 uM protein, 0.1 uM dsDNA library, 30 min, room temperature, amylose pull-down; high values mean tight binding
Settings: protein: recombinant; tags: His6-MBP; chain copies: 2; dsDNA, one strand shown
How it was run: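 Protein and DNA were mixed at 0.4 µM and 0.1 µM and held for 30 min at room temperature in Tris pH 7.5 buffer with NaCl and MgCl2; the protein was a His6-MBP-tagged, N-terminally truncated mouse FoxP3 or FoxP1 fragment from E. coli, and the DNA a Klenow-filled double-stranded degenerate library. Amylose resin captured the complexes, which were washed three times. Binding is read as reads-per-million enrichment of pull-down versus input after Illumina sequencing, with replicates pooled.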

| Sequence | binding signal |
| --- | --- |
| GATGATTGTTCTCCCAGCTGATGAATTTTAAGTATCGAGTAAACAAATTTTCCTAATCTTTCTGTTCAAGCGCCATCTAC | 1.1 RPM ratio (pull-down/input) |
| GATGATTGTTCTCCCAGCTGATGAATTAAAGCATTCGAGTAAACAAATTTTCCTAATCTTTCTGTTCAAGCGCCATCTAC | 1.23 RPM ratio (pull-down/input) |
| GATGATTGTTCTCCCAGCTGATGAATTCGGCATCTCGAGTAAACAAATTTTCCTAATCTTTCTGTTCAAGCGCCATCTAC | 1.1 RPM ratio (pull-down/input) |
| GATGATTGTTCTCCCAGCTGATGAATTGGAGATATCGAGTAAACAAATTTTCCTAATCTTTCTGTTCAAGCGCCATCTAC | 0.908 RPM ratio (pull-down/input) |
| GATGATTGTTCTCCCAGCTGATGAATTCAAGGTTTCGAGTAAACAAATTTTCCTAATCTTTCTGTTCAAGCGCCATCTAC | 0.912 RPM ratio (pull-down/input) |
| GATGATTGTTCTCCCAGCTGATGAATTCAGTCCATCGAGTAAACAAATTTTCCTAATCTTTCTGTTCAAGCGCCATCTAC | 0.891 RPM ratio (pull-down/input) |
| GATGATTGTTCTCCCAGCTGATGAATTGAGGGGCTCGAGTAAACAAATTTTCCTAATCTTTCTGTTCAAGCGCCATCTAC | 0.822 RPM ratio (pull-down/input) |
| GATGATTGTTCTCCCAGCTGATGAATTTTAGTAGTCGAGTAAACAAATTTTCCTAATCTTTCTGTTCAAGCGCCATCTAC | 0.947 RPM ratio (pull-down/input) |
| GATGATTGTTCTCCCAGCTGATGAATTGGTAGATTCGAGTAAACAAATTTTCCTAATCTTTCTGTTCAAGCGCCATCTAC | 0.997 RPM ratio (pull-down/input) |
| GATGATTGTTCTCCCAGCTGATGAATTCGATCTCTCGAGTAAACAAATTTTCCTAATCTTTCTGTTCAAGCGCCATCTAC | 0.749 RPM ratio (pull-down/input) |
| GATGATTGTTCTCCCAGCTGATGAATTGTCTGGCTCGAGTAAACAAATTTTCCTAATCTTTCTGTTCAAGCGCCATCTAC | 0.857 RPM ratio (pull-down/input) |
| GATGATTGTTCTCCCAGCTGATGAATTCGGTGTGTCGAGTAAACAAATTTTCCTAATCTTTCTGTTCAAGCGCCATCTAC | 0.959 RPM ratio (pull-down/input) |
| GATGATTGTTCTCCCAGCTGATGAATTGTGCATATCGAGTAAACAAATTTTCCTAATCTTTCTGTTCAAGCGCCATCTAC | 1.29 RPM ratio (pull-down/input) |
| GATGATTGTTCTCCCAGCTGATGAATTGTCATAATCGAGTAAACAAATTTTCCTAATCTTTCTGTTCAAGCGCCATCTAC | 1.44 RPM ratio (pull-down/input) |
| GATGATTGTTCTCCCAGCTGATGAATTGTGAGATTCGAGTAAACAAATTTTCCTAATCTTTCTGTTCAAGCGCCATCTAC | 1.04 RPM ratio (pull-down/input) |
| GATGATTGTTCTCCCAGCTGATGAATTAAAGCAGTCGAGTAAACAAATTTTCCTAATCTTTCTGTTCAAGCGCCATCTAC | 0.924 RPM ratio (pull-down/input) |
| GATGATTGTTCTCCCAGCTGATGAATTCTGTACGTCGAGTAAACAAATTTTCCTAATCTTTCTGTTCAAGCGCCATCTAC | 0.92 RPM ratio (pull-down/input) |
| GATGATTGTTCTCCCAGCTGATGAATTGCGCAAATCGAGTAAACAAATTTTCCTAATCTTTCTGTTCAAGCGCCATCTAC | 1.26 RPM ratio (pull-down/input) |
| GATGATTGTTCTCCCAGCTGATGAATTCAGATCATCGAGTAAACAAATTTTCCTAATCTTTCTGTTCAAGCGCCATCTAC | 0.939 RPM ratio (pull-down/input) |
| GATGATTGTTCTCCCAGCTGATGAATTCCTTCCGTCGAGTAAACAAATTTTCCTAATCTTTCTGTTCAAGCGCCATCTAC | 0.839 RPM ratio (pull-down/input) |
| GATGATTGTTCTCCCAGCTGATGAATTTGAGCGCTCGAGTAAACAAATTTTCCTAATCTTTCTGTTCAAGCGCCATCTAC | 0.83 RPM ratio (pull-down/input) |

| Sequence | binding signal |
| --- | --- |
| GATGATTGTTCTCCCAGCTGATGAATTCACGTGGTCGAGTAAACAAATTTTCCTAATCTTTCTGTTCAAGCGCCATCTAC | 0.933 RPM ratio (pull-down/input) |
| GATGATTGTTCTCCCAGCTGATGAATTTTGAAGTTCGAGTAAACAAATTTTCCTAATCTTTCTGTTCAAGCGCCATCTAC | 0.901 RPM ratio (pull-down/input) |
| GATGATTGTTCTCCCAGCTGATGAATTAGCCTGATCGAGTAAACAAATTTTCCTAATCTTTCTGTTCAAGCGCCATCTAC | 0.84 RPM ratio (pull-down/input) |
| GATGATTGTTCTCCCAGCTGATGAATTAAAGTAATCGAGTAAACAAATTTTCCTAATCTTTCTGTTCAAGCGCCATCTAC | 1.64 RPM ratio (pull-down/input) |
| GATGATTGTTCTCCCAGCTGATGAATTCATAATTTCGAGTAAACAAATTTTCCTAATCTTTCTGTTCAAGCGCCATCTAC | 1.06 RPM ratio (pull-down/input) |
| GATGATTGTTCTCCCAGCTGATGAATTATTGTACTCGAGTAAACAAATTTTCCTAATCTTTCTGTTCAAGCGCCATCTAC | 1.24 RPM ratio (pull-down/input) |
| GATGATTGTTCTCCCAGCTGATGAATTATTTTCCTCGAGTAAACAAATTTTCCTAATCTTTCTGTTCAAGCGCCATCTAC | 1.34 RPM ratio (pull-down/input) |
| GATGATTGTTCTCCCAGCTGATGAATTCAGTCCTTCGAGTAAACAAATTTTCCTAATCTTTCTGTTCAAGCGCCATCTAC | 0.831 RPM ratio (pull-down/input) |
| GATGATTGTTCTCCCAGCTGATGAATTGGGTGCATCGAGTAAACAAATTTTCCTAATCTTTCTGTTCAAGCGCCATCTAC | 1.22 RPM ratio (pull-down/input) |
| GATGATTGTTCTCCCAGCTGATGAATTCTCGACGTCGAGTAAACAAATTTTCCTAATCTTTCTGTTCAAGCGCCATCTAC | 0.871 RPM ratio (pull-down/input) |
| GATGATTGTTCTCCCAGCTGATGAATTCGCTCTGTCGAGTAAACAAATTTTCCTAATCTTTCTGTTCAAGCGCCATCTAC | 0.845 RPM ratio (pull-down/input) |
| GATGATTGTTCTCCCAGCTGATGAATTTCCTAGCTCGAGTAAACAAATTTTCCTAATCTTTCTGTTCAAGCGCCATCTAC | 0.861 RPM ratio (pull-down/input) |
| GATGATTGTTCTCCCAGCTGATGAATTGTTTGTTTCGAGTAAACAAATTTTCCTAATCTTTCTGTTCAAGCGCCATCTAC | 2.72 RPM ratio (pull-down/input) |
| GATGATTGTTCTCCCAGCTGATGAATTGTCCAACTCGAGTAAACAAATTTTCCTAATCTTTCTGTTCAAGCGCCATCTAC | 1.02 RPM ratio (pull-down/input) |
| GATGATTGTTCTCCCAGCTGATGAATTGATCGTCTCGAGTAAACAAATTTTCCTAATCTTTCTGTTCAAGCGCCATCTAC | 0.89 RPM ratio (pull-down/input) |
| GATGATTGTTCTCCCAGCTGATGAATTCCTTTGTTCGAGTAAACAAATTTTCCTAATCTTTCTGTTCAAGCGCCATCTAC | 0.871 RPM ratio (pull-down/input) |
| GATGATTGTTCTCCCAGCTGATGAATTCGTGTTGTCGAGTAAACAAATTTTCCTAATCTTTCTGTTCAAGCGCCATCTAC | 2.52 RPM ratio (pull-down/input) |
| GATGATTGTTCTCCCAGCTGATGAATTACACCGGTCGAGTAAACAAATTTTCCTAATCTTTCTGTTCAAGCGCCATCTAC | 1.05 RPM ratio (pull-down/input) |
| GATGATTGTTCTCCCAGCTGATGAATTCGGAAGCTCGAGTAAACAAATTTTCCTAATCTTTCTGTTCAAGCGCCATCTAC | 0.761 RPM ratio (pull-down/input) |
| GATGATTGTTCTCCCAGCTGATGAATTCGATACATCGAGTAAACAAATTTTCCTAATCTTTCTGTTCAAGCGCCATCTAC | 1.09 RPM ratio (pull-down/input) |
| GATGATTGTTCTCCCAGCTGATGAATTTTATTACTCGAGTAAACAAATTTTCCTAATCTTTCTGTTCAAGCGCCATCTAC | 1.01 RPM ratio (pull-down/input) |

| Sequence | binding signal |
| --- | --- |
| GATGATTGTTCTCCCAGCTGATGAATTGACGTCATCGAGTAAACAAATTTTCCTAATCTTTCTGTTCAAGCGCCATCTAC | 1.29 RPM ratio (pull-down/input) |
| GATGATTGTTCTCCCAGCTGATGAATTGCACCCCTCGAGTAAACAAATTTTCCTAATCTTTCTGTTCAAGCGCCATCTAC | 1.08 RPM ratio (pull-down/input) |
| GATGATTGTTCTCCCAGCTGATGAATTTCAAGAGTCGAGTAAACAAATTTTCCTAATCTTTCTGTTCAAGCGCCATCTAC | 0.775 RPM ratio (pull-down/input) |
| GATGATTGTTCTCCCAGCTGATGAATTGCGGGACTCGAGTAAACAAATTTTCCTAATCTTTCTGTTCAAGCGCCATCTAC | 0.969 RPM ratio (pull-down/input) |
| GATGATTGTTCTCCCAGCTGATGAATTTTGGGATTCGAGTAAACAAATTTTCCTAATCTTTCTGTTCAAGCGCCATCTAC | 0.876 RPM ratio (pull-down/input) |
| GATGATTGTTCTCCCAGCTGATGAATTTATCTCTTCGAGTAAACAAATTTTCCTAATCTTTCTGTTCAAGCGCCATCTAC | 1.14 RPM ratio (pull-down/input) |
| GATGATTGTTCTCCCAGCTGATGAATTAACAGAGTCGAGTAAACAAATTTTCCTAATCTTTCTGTTCAAGCGCCATCTAC | 0.832 RPM ratio (pull-down/input) |
| GATGATTGTTCTCCCAGCTGATGAATTCGTATAATCGAGTAAACAAATTTTCCTAATCTTTCTGTTCAAGCGCCATCTAC | 1.07 RPM ratio (pull-down/input) |
| GATGATTGTTCTCCCAGCTGATGAATTTATCATATCGAGTAAACAAATTTTCCTAATCTTTCTGTTCAAGCGCCATCTAC | 1.35 RPM ratio (pull-down/input) |
| GATGATTGTTCTCCCAGCTGATGAATTCCGACATTCGAGTAAACAAATTTTCCTAATCTTTCTGTTCAAGCGCCATCTAC | 0.846 RPM ratio (pull-down/input) |
| GATGATTGTTCTCCCAGCTGATGAATTTTTGGGTTCGAGTAAACAAATTTTCCTAATCTTTCTGTTCAAGCGCCATCTAC | 0.898 RPM ratio (pull-down/input) |
| GATGATTGTTCTCCCAGCTGATGAATTATCGAGTTCGAGTAAACAAATTTTCCTAATCTTTCTGTTCAAGCGCCATCTAC | 0.888 RPM ratio (pull-down/input) |
| GATGATTGTTCTCCCAGCTGATGAATTGTATGTATCGAGTAAACAAATTTTCCTAATCTTTCTGTTCAAGCGCCATCTAC | 1.67 RPM ratio (pull-down/input) |
| GATGATTGTTCTCCCAGCTGATGAATTCTGCGTTTCGAGTAAACAAATTTTCCTAATCTTTCTGTTCAAGCGCCATCTAC | 0.874 RPM ratio (pull-down/input) |
| GATGATTGTTCTCCCAGCTGATGAATTTCCAGTATCGAGTAAACAAATTTTCCTAATCTTTCTGTTCAAGCGCCATCTAC | 0.868 RPM ratio (pull-down/input) |
| GATGATTGTTCTCCCAGCTGATGAATTCAGTGGGTCGAGTAAACAAATTTTCCTAATCTTTCTGTTCAAGCGCCATCTAC | 0.815 RPM ratio (pull-down/input) |
| GATGATTGTTCTCCCAGCTGATGAATTCGGCGCATCGAGTAAACAAATTTTCCTAATCTTTCTGTTCAAGCGCCATCTAC | 1.1 RPM ratio (pull-down/input) |
| GATGATTGTTCTCCCAGCTGATGAATTTTAATGTTCGAGTAAACAAATTTTCCTAATCTTTCTGTTCAAGCGCCATCTAC | 1.24 RPM ratio (pull-down/input) |
| GATGATTGTTCTCCCAGCTGATGAATTGGTTCCGTCGAGTAAACAAATTTTCCTAATCTTTCTGTTCAAGCGCCATCTAC | 0.961 RPM ratio (pull-down/input) |
| GATGATTGTTCTCCCAGCTGATGAATTCTTAAAGTCGAGTAAACAAATTTTCCTAATCTTTCTGTTCAAGCGCCATCTAC | 0.907 RPM ratio (pull-down/input) |
| GATGATTGTTCTCCCAGCTGATGAATTACCAGGGTCGAGTAAACAAATTTTCCTAATCTTTCTGTTCAAGCGCCATCTAC | 0.877 RPM ratio (pull-down/input) |
